# The full ranking holds about 110,000 compounds; the median of “z-score” is about -0.1, and the highest 2% start at about 2. Some of the results follow. Calls of active or inactive are those of the source.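 How the source made its calls: active means z-score in the third read window above 3 or below -3; inactive means the rest.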
# Target: Metabotropic glutamate receptor 8 (Rattus norvegicus) (UniProt P70579)
# Test: mGluR8 Gi/Go-coupled signaling modulation – cell-based, rat, thallium flux, HTS, primary screen (AID 488969)
# Conditions: HEK293 rat mGluR8, GIRK (G protein-gated inwardly rectifying potassium channel) thallium flux, FluoZin2; at 10 µM; stronger effect = higher value; submaximal glutamate (EC20) added with thallium
# UniProt P70579, sequence (P70579 whole entry, looked up): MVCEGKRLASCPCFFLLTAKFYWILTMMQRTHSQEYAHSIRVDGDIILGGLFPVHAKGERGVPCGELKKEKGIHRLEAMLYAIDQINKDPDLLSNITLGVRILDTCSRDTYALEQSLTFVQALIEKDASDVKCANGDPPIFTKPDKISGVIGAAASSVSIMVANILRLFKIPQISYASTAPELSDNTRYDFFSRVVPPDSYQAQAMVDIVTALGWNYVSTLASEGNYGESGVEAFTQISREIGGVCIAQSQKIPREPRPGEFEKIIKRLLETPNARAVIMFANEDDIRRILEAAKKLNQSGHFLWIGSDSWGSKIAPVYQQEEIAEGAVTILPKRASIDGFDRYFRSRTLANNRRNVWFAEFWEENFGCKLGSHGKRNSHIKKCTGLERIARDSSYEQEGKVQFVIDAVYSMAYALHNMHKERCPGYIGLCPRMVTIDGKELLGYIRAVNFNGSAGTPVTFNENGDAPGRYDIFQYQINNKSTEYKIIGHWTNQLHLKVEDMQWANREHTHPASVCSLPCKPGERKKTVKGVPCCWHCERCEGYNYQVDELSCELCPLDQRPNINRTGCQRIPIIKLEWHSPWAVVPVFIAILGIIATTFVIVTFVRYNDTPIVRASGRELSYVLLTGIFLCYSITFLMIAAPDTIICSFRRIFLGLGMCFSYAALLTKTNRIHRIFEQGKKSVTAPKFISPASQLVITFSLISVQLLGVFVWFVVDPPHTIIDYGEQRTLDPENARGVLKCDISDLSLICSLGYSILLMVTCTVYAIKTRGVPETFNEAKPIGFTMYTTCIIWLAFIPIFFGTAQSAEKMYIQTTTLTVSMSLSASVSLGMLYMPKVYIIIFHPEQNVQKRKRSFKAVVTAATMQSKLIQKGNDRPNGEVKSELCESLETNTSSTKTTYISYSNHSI
row,SMILES,z-score
1,Cc1cccc(Nc2nc(N)c([N+](=O)[O-])c(N3CCOCC3)n2)c1,-0.442
2,O=C(Nc1ccccc1N1CCCCC1)c1ccccc1F,-0.336
3,Cc1ccc(NC(=O)COC(=O)C2=COCCO2)cc1,-0.19
4,CC(=O)NC12CC3CC(C1)CC(C(=O)Nc1nccs1)(C3)C2,-0.116
5,COc1ccc2oc(=O)c(C(=O)NCc3cccnc3)cc2c1,-0.102
6,COc1ccccc1C(=O)N1CCN(C2CCN(Cc3ccccc3)CC2)CC1,-0.0811
7,CSc1nc(C)cc(SCC(=O)Nc2ccc(Cl)cc2Cl)n1,-0.217
8,COC(=O)C1=C(C(=O)OC)C(c2ccccc2O)c2sc(=O)[nH]c2S1 (stereo not given),-1.12
9,CCOC(=O)c1c(C)n(C)c2ccc(OCC(O)CN3C(=O)c4ccccc4S3(=O)=O)cc12 (stereo not given),1.88
10,COc1nc(Nc2cccc(C(F)(F)F)c2)nc(OC)n1,-0.42
11,COc1ccccc1NC(=S)N1CCN(C/C=C/c2ccccc2)CC1,-0.205
12,CCCN(CC(=O)Nc1ccc(C)cc1Br)CC(=O)Nc1ccc(F)c(F)c1F,-0.174
13,COc1ccc(-c2cc(C(F)(F)F)nc(SCC(=O)Nc3sc4c(c3C#N)CCC4)n2)cc1,-0.24
14,CCN1CCN(Cc2nc3c(c(=O)n(C)c(=O)n3C)n2Cc2cccc3ccccc23)CC1,0.0876
15,COC(=O)c1cccc(Oc2nc3c(c(=O)n(C)c(=O)n3C)n2C(C)C)c1,-0.403
16,O=C(NCCN1CCN(c2ccccc2)CC1)C1CCCN(S(=O)(=O)c2cnc[nH]2)C1 (stereo not given),-0.179
17,CN(CC(=O)NC(=O)NCc1ccccc1)Cc1cccc(Cl)c1Cl,0.0661
18,O=C(Cc1ccc(Br)cc1)N1CCN(c2ccccc2O)CC1,0.0805
19,COc1cc(CN(C(=O)c2ccco2)c2ccc(C)cc2)ccc1O,-2.06
20,COc1cc(Cl)c(C)cc1NC(=O)c1cc(S(=O)(=O)N(C)C)ccc1N1CCCC1,-1.35
21,CCCOc1c(OC)cccc1C1CC(=O)Nc2cc3c(cc21)OCO3 (stereo not given),-0.508
22,COC(=O)c1ccccc1NC(=O)COC(=O)c1cccnc1,-0.181

row,SMILES,z-score
1,CCOc1ccc(-c2nnn(CC#N)n2)cc1OC,0.567
2,COc1cccc(N2CC(O)=C(c3nc4ccccc4c(=O)[nH]3)C2=N)c1,0.264
3,CCCC(=O)C1=C(O)C(C(=O)OC)C(C)(C)CC1=N (stereo not given),0.401
4,Cc1cc(C)n(C/C=C/Cn2nc(C)cc2C)n1,-0.482
5,COc1cc(C)ccc1S(=O)(=O)N1CCN(C23CC4CC(CC(C4)C2)C3)CC1,1.95
6,CCOC(=O)CON1C(=O)C(C)(C)N(OCC(=O)OCC)C(=O)C1(C)C,0.749
7,COc1ccc(C(=O)C[N+]2(C)CCOCC2)cc1,0.0424
8,CCN1C(c2ccccc2)=C(c2ccccc2)S/C1=C\C=C1/SC(=S)N(C)C1=O,-0.267
9,COc1ccccc1-c1nnc(NC(=O)OCC(C)C)s1,-0.329
10,C/C(=N\NC(=O)Cn1c(C)nc2ccccc21)c1cccs1,-0.134
11,C=CCn1c(NC)cc(=O)n(C)c1=O,0.549
12,COc1cc(C(=O)NCCOc2ccccc2C)c(Br)c(OC)c1OC,0.148
13,Oc1ccc(Cl)cc1-c1cc(C(F)(F)C(F)F)nc(-c2ccccc2)n1,-0.202
14,CC1CCCCN1C(=O)COc1ccc(NC(=O)c2ccco2)cc1 (stereo not given),0.31
15,Cc1ccccc1NC(=S)c1nc2ccccc2[nH]1,active: 10.9
16,Cc1ccc(CC(=O)OCC(=O)NC2CCCC(C)C2C)cc1C (stereo not given),0.326
17,O=C(C(Cc1ccccc1)n1cccc1)N1CCN(c2ncccn2)CC1 (stereo not given),-0.381
18,Nc1cc(-c2ccc(Cl)cc2)nn1S(=O)(=O)c1cccc2nsnc12,-0.417
19,O=C(NC1CCCCC1)c1cc(Cl)ccc1[N+](=O)[O-],-0.0951
20,CCCC(c1nnnn1C(C)(C)CC)N(CCCO)Cc1cc2cc(C)cc(C)c2[nH]c1=O (stereo not given),-1.4
21,O=C(CNCCC1=CCCCC1)Nc1ccccc1N1CCCCC1,0.651
22,COc1ccc(P(=O)(COc2ccc([N+](=O)[O-])cc2)c2ccc(OC)cc2)cc1,-0.135

row,SMILES,z-score
1,Cc1cc(NC(=O)c2cnc3ccccn3c2=O)no1,-0.108
2,Oc1ccc(N=Cc2ccc(-c3cccs3)s2)cc1,0.315
3,Cc1nn(S(=O)(=O)c2ccc(Cl)cc2)c(C)c1Sc1ccc([N+](=O)[O-])cc1,-0.269
4,CCOC(=O)c1sc(NC(=O)CSc2n[nH]c(-c3ccncc3)n2)c(C#N)c1C,-0.25
5,CC(C)CN=C(NS(=O)(=O)c1ccccc1)C(Cl)(Cl)Cl,-0.221
6,CC1(C)C(=O)Nc2ccccc2N1C(=O)COC(=O)c1cc([N+](=O)[O-])ccc1N,-0.325
7,COCCSc1ccccc1C(=O)NCc1ccc(S(N)(=O)=O)cc1,0.373
8,O=C(Nc1nc(-c2ccccc2)cs1)c1cccc([N+](=O)[O-])c1C(=O)O,0.279
9,CCn1nc(C(=O)OC(C(=O)c2c[nH]c3ccccc23)c2ccccc2)c2ccccc2c1=O (stereo not given),-0.494
10,O=C(COC(=O)c1ccccc1C(=O)c1ccccc1)Nc1ccc(SC(F)F)cc1,-0.343
11,O=C(Nc1cccc2nsnc12)c1ccc2c(c1)OCO2,-0.167
12,CCOC(=O)C1CCCN(C(=S)Nc2cccc(Cl)c2)C1 (stereo not given),-0.0944
13,O=C1C2CCCN2C(c2ccccc2)N1c1nccs1 (stereo not given),0.521
14,Cc1ccc(CN2CC34C=CC(O3)C(C(=O)NCc3ccc5c(c3)OCO5)C4C2=O)cc1 (stereo not given),-0.137
15,Cc1ccc2sc(NC(=O)CSc3nc(C)cc(C)c3C#N)nc2c1,0.015
16,Cc1ccc2[nH]c(=O)c(CN(C)C(=O)c3ccccn3)cc2c1,0.194
17,Cc1occc1C(=O)Nc1sc2c(c1C(N)=O)CCC(C(C)(C)C)C2 (stereo not given),0.0299
18,CCCCn1c(=O)n(C)c(=O)c2c3c(sc21)COC(C)(C)C3,0.121
19,COC(=O)c1sc(=S)n(-c2cccc(Cl)c2)c1N,0.107
20,CCCCCCc1cc2cc(-c3nnc(-c4cc(OC)c(OC)c(OC)c4)o3)c(=O)oc2cc1O,active: -4.55
21,CCOC(=O)c1[nH]c(C)c(C(=O)NCCCN2CCOCC2)c1C,0.394
22,C=CCC(NCc1ccco1)c1ccc(OC)c(OC)c1 (stereo not given),-0.327

row,SMILES,z-score
1,CCc1ccc(NC(=O)c2cccnc2)cc1,-0.123
2,CCCCCOc1ccc(N2C(=O)CC(N(O)c3ccccc3)C2=O)cc1 (stereo not given),-0.221
3,Cc1cc2nc(-c3ccc(SCC(=O)N4CCOCC4)nc3)[nH]c2cc1C,-0.284
4,Cc1cc(=O)oc2cc(OCC(=O)N3CCOCC3)ccc12,0.0972
5,O=C(N/N=C/c1c[nH]c2ccccc12)c1cccc([N+](=O)[O-])c1,-0.556
6,O=c1[nH]c(NCCO)nc2ncn(Cc3ccccc3)c12,0.0474
7,CCOC(=O)C(C)Sc1nnc(Cn2c(=O)sc3ccccc32)n1-c1ccccc1 (stereo not given),-0.36
8,COC(=O)Nc1ccc(S(=O)(=O)Nc2ccccc2F)cc1,0.00713
9,O=C(Nc1nnc(C2COc3ccccc3O2)o1)c1ccc(F)cc1 (stereo not given),1.28
10,COc1cc(OC)nc(NC(C)=O)n1,0.238
11,Cc1ccc(O)c(C(=O)c2cnc3c(c2)CN(CCC(C)C)C(=O)N3)c1,0.371
12,COc1ccc(OC)c(/C=N/NC(=O)c2csc3ccccc23)c1,-0.183
13,COc1cc2c(cc1OC)CN(C(=O)CSc1nnc(C)s1)CC2,-0.184
14,CCCC(=O)Nc1cccc(NC(=O)c2ccc3c(c2)OCO3)c1,-0.181
15,CC(NC(=O)c1ccc(Cn2cc([N+](=O)[O-])cn2)o1)c1ccccc1 (stereo not given),0.0431
16,Cc1ccc(NC(=O)NCCN2C(=O)C3C4C=CC(C4)C3C2=O)cc1 (stereo not given),0.072
17,CN(C)S(=O)(=O)N1CCN(C(=O)N2CCCCCC2)CC1,-0.197
18,COc1cccc(OC)c1C(=O)NC(=S)Nc1ccc2oc(=O)ccc2c1,-0.2
19,CCC(=O)Nc1ccc(NC(=O)CSc2nc3cc4c(cc3cc2C)CCC4)cc1,-0.0861
20,Cc1ccc(CNc2cc(-c3nn4c(C)nnc4s3)ccc2C)s1,-0.352
21,O=C(c1ccc2c(c1)c(=O)oc1ccccc12)N1CCCCC1,-0.151
22,COc1ccccc1CN=c1c([N+](=O)[O-])nn(-c2ccc3c(c2)OCCO3)n1O,-0.0943

row,SMILES,z-score
1,CSc1nnc([C@@H](NC(=O)OC(C)(C)C)C(C)C)o1,1.74
2,COC(=O)C1=NN(C(=O)c2ccc(Cl)cc2)C(O)(c2ccccc2)C1 (stereo not given),active: 11.5
3,CCOC(=O)c1sc(N(C)C(C)=O)nc1C,-0.141
4,CCOc1cc(C(=O)Nc2cc(C)on2)cc(OCC)c1OCC,-0.128
5,CCOC(=O)N1CCN(C(=O)C2CCC(CNS(=O)(=O)c3ccccc3)CC2)CC1 (stereo not given),-0.0503
6,COc1cccc(Oc2ccc(C(F)(F)F)cc2N)c1,-0.291
7,CCC(N)C12CC3CC(CC(O)(C3)C1)C2 (stereo not given),-0.212
8,CNC(=S)N1N=C(c2ccc(C)cc2)CC1c1ccc(Br)cc1 (stereo not given),-0.0362
9,O=C(Cn1cnc2cc([N+](=O)[O-])ccc2c1=O)Nc1ccc2c(c1)CCC2,-0.0344
10,Cc1ccc(S(=O)(=O)NC2=C(N3CCN(c4ccccc4F)CC3)C(=O)c3ccccc3C2=O)cc1,0.268
11,O=C(N/N=C/c1ccc2c(c1)OCO2)c1cc(-c2ccc(F)cc2)nc2ccccc12,-0.0177
12,N#C/C(=C/c1cn(CC(=O)O)c2ccccc12)c1ccc(F)cc1,-0.58
13,Cc1cccc(C(=O)NCC2CCCO2)c1 (stereo not given),2.21
14,CN(CC(=O)Nc1ccc(C(N)=O)cc1)CC(=O)Nc1ccccc1Cl,-0.217
15,Cc1c(C(=O)O)c2cc(O)ccc2n1-c1ccccc1,0.362
16,O=C(O)CCc1ccc(-c2cccs2)n1NC(=O)c1ccco1,0.718
17,COc1cc(/C=C/C(=O)Nc2ccccc2C(F)(F)F)cc(OC)c1OC,-0.503
18,O=C1C2C3C=CC(CC3)C2C(=O)N1c1nccs1 (stereo not given),-0.26
19,CCC(=O)Nc1ccc(Nc2nc(C)c([N+](=O)[O-])c(Nc3ccc(NC(=O)CC)cc3)n2)cc1,-0.755
20,Cc1ccc(COc2cccc3c2CCN(Cc2ccc(F)cc2)C3=O)cc1,1.1
21,O=C(Cc1ccccc1)Nc1ccc(N2CCCC2)cc1,-0.805
22,CCc1sc(N)nc1-c1ccccc1,-0.082

# — PubChem BioAssay AID488969 (Vanderbilt High Throughput Screening Facility, 2010)
